From PubChem BioAssay AID463173 (ICCB-Longwood Screening Facility, Harvard Medical School, 2010)
Screen size: about 52,000 compounds; about 4,300 (8.3%) were called active. No stated cut-off is given here; in the data, active means survival mostly below about 52% (no sharp cut-off); inactive means mostly above about 56%. The list shows a part of the results.

Each compound was assayed on DeltatarO mutant (assay: growth inhibition of S. aureus wild type versus tarO mutant, primary screen, teichoic acid synthesis inhibitors, RN4220, OD600 (AID 463173)). Settings: OD600, 18 h, active compounds read low, screened at 18.75 µg/mL (by protocol).

Structure (SMILES)	survival
c1ccc(N2CCN(c3ncnc4c3nc3n4CCCCC3)CC2)cc1	inactive: 89%
COC(=O)C1CCN(c2csc3ccc(C)cc3c2=O)CC1	inactive: 72%
CCc1nn(CCCC(=O)NCc2ccc(OC)c(OC)c2)c(=O)c2cc3occc3n12	inactive: 79%
CCN(CC)c1ccc(-c2nc(-c3ccccn3)no2)cc1[N+](=O)[O-]	active: 41%
CCCCNC(=O)CSc1nc2ccccc2nc1Cc1ccccc1	inactive: 85%
C=CCNC(=O)CN1CCN(C)CC1	inactive: 77%
CC(C)Cc1nn2c(=O)cc(O)nc2s1	inactive: 89%
CC1=C(C(=O)Nc2cccnc2)C(c2ccc(F)cc2)n2nc(SCc3ccccc3)nc2N1 (centres undefined)	inactive: 80%
Cc1cccc(NC(=O)CCS(=O)(=O)c2cc(Br)cc3c2N(C(=O)C2CC2)CC3)c1C	inactive: 100%
Cc1cc(C)cc(NC(=O)C2CCN(c3nc(C)cc(C)n3)CC2)c1	inactive: 76%
CC1CCN(S(=O)(=O)c2cccc(C(=O)N(C)C3(C)CCS(=O)(=O)C3)c2)CC1 (centres undefined)	inactive: 75%
COc1cc(OC)c(NC(=O)CSc2nc3ccncc3[nH]2)cc1Cl	inactive: 112%
CCN1C(=O)C2C(c3ccccc3O)NC(Cc3c[nH]c4ccccc34)(C(=O)O)C2C1=O (centres undefined)	inactive: 61%
CC(NC(=O)C1CCN(C(=O)N2CCOc3ccccc32)CC1)c1ccccc1 (centres undefined)	inactive: 71%
CSc1oc(-c2ccc(F)cc2)nc1S(=O)(=O)c1ccc(Br)cc1	active: 41%
CC(C)CC(NC(=O)C1CCC(C)CC1)C(=O)OCC(=O)c1ccc(Cl)cc1 (centres undefined)	inactive: 139%
O=C(CSc1nc2ccccc2n1Cc1ccccc1)NCc1ccccc1	inactive: 95%
C#CC(CCN1CCCCC1)(OC)c1ccccc1 (centres undefined)	inactive: 69%
Oc1cccc2c1NCCC2	inactive: 98%
CC(C)CCNC(=O)c1ccc(NC(=O)N2CCCCc3ccccc32)cc1	inactive: 80%

Structure (SMILES)	survival
Cc1ccc(N2CC(NC(=O)C3CCCC3)CC2=O)cc1 (centres undefined)	inactive: 81%
COc1cccc(N2CCN(C(=O)Cn3ncc4c3-c3ccccc3OC4)CC2)c1	inactive: 58%
CCOc1ccc(Nc2c(S(=O)(=O)c3ccccc3)cnc3ccc(CC)cc23)cc1	active: 34%
Cc1ccc(C(=O)c2cn(CC(=O)Nc3ccc4c(c3)OCCO4)c3nc(C)ccc3c2=O)cc1	inactive: 75%
COc1ccc(CCC(=O)NCCc2csc(-c3cccc(F)c3)n2)cc1	inactive: 83%
COc1cc2c(cc1NC(=O)C(C)Oc1ccc(Cl)cc1Cl)oc1ccccc12 (centres undefined)	active: 38%
COc1ccc(NC(=O)c2oc3ccc4c(c3c2C)C(=O)CC(C)(C)O4)cc1OC	inactive: 70%
CC1CCN(C(C(=O)O)c2ccccc2)CC1 (centres undefined)	inactive: 98%
COc1ccc(NC(=O)CCCN2C(=O)C(c3ccccc3)Oc3cccnc32)cc1OC (centres undefined)	inactive: 77%
COc1cc(-c2nnc(SCC(=O)N(C)C3CCCCC3)o2)cc(OC)c1OC	inactive: 85%
Cc1ccc(CCNC(=O)CCCn2nc(C)c3c(C)n(-c4ccc(C)cc4)nc3c2=O)cc1	inactive: 94%
COc1ccc(-c2noc(CSc3nnc(-c4ccncc4)n3-c3cccc(C)c3)n2)cc1OC	inactive: 76%
CCS(=O)(=O)N1CCN(c2nc(C)nc3sc4c(c23)CCC(C)C4)CC1 (centres undefined)	inactive: 102%
Cc1ccc(-c2cc(-c3coc4ccccc4c3=O)c3c(n2)-c2cc(Cl)ccc2OC3)cc1	inactive: 87%
Cc1cc(C)cc(NC(=O)NCC2CCN(Cc3cc(C)ccc3C)CC2)c1	inactive: 94%
CC(=O)Nc1ccc(-c2nnc3n(CC(C)C)c(=O)c4ccccc4n23)cc1	inactive: 96%
COc1ccccc1NC(=O)Cn1c(SCC(=O)NCc2ccccc2)nc2ccccc21	inactive: 70%
Cc1ccc(N2C(=O)[C@@H]3CSC(c4ccc(C(F)(F)F)cc4)N3C2=O)cc1 (some centres undefined)	inactive: 129%
COc1cccc(-c2nc(SC(C(C)=O)C(=O)N(C)C)c3c(=O)n(C)c(=O)n(C)c3n2)c1 (centres undefined)	inactive: 69%
CCOC(=O)C1=C(CNCc2ccccc2)NC(=O)NC1c1ccc(C)cc1 (centres undefined)	inactive: 63%

Structure (SMILES)	survival
COc1ccc(C(=O)CC(=O)c2ccccc2O)cc1	inactive: 71%
COc1ccc(N2CCN(S(C)(=O)=O)CC2)cc1	inactive: 86%
COc1ccc(-n2c(=O)c3c(C)c(C)sc3n(Cc3ccc(F)cc3)c2=O)c(OC)c1	inactive: 60%
Cc1ccc(S(=O)(=O)N2CCCc3cc(NC(=O)c4ccc(C(F)(F)F)cc4)ccc32)cc1	inactive: 94%
Cc1cc(N2CCN(C)CC2)nc2ccc(NC(=O)Nc3ccccc3Cl)cc12	inactive: 87%
Cc1ccc(OCC(=O)OCc2cc(=O)n3nc(C4CCCCC4)sc3n2)cc1	inactive: 120%
CCN(c1ncnc2c1c(-c1ccccc1)cn2-c1ccccc1)C1CCCCC1	inactive: 96%
Cc1nc(N2CC(C)OC(C)C2)c2nnn(Cc3c(F)cccc3Cl)c2n1 (centres undefined)	inactive: 98%
COc1ccc(OC)c(CCNC(=O)c2sc3nc4n(c(=O)c3c2C)CCCC4)c1	inactive: 80%
CCOc1ccccc1NS(=O)(=O)c1c(C(=O)OC)sc2cccc(F)c12	active: 20%
COc1ccc(N(C(=O)c2ccccc2C)S(=O)(=O)c2ccc3c(c2)n(C)c(=O)n3C)cc1	inactive: 86%
CCNc1c(NC(=O)c2ccccc2OCC)c(=O)oc2ccccc12	inactive: 100%
CSCCC(NC(=O)C1CCCCC1)C(=O)Nc1ccc(F)c(Cl)c1 (centres undefined)	inactive: 64%
Cc1cc(O)c(C(c2ccccc2Cl)N2CCCCC2)c(=O)n1Cc1ccco1 (centres undefined)	inactive: 76%
Cc1ccc(C(C)C)c(OCC(=O)Nc2c(C(=O)c3ccc(F)cc3)oc3ccccc23)c1	inactive: 79%
Cc1c2cnn(CC(=O)N3CCCCC3)c(=O)c2c(C)n1Cc1ccc(Cl)cc1	inactive: 64%
Cc1ccc(NC(=O)c2ccc3c(=O)n4nc(Nc5ccccc5C)sc4nc3c2)cc1C	inactive: 83%
CCc1ccc(C2N3CC4(C)CN2CC(c2ccccc2)(C3)C4=O)cc1 (centres undefined)	inactive: 105%
CCn1cc(C(=O)NCc2ccccc2)c(=O)c2cc(S(=O)(=O)N3CCOCC3)ccc21	inactive: 76%
